# Experimental data published in a collection of fitness landscapes (doi:10.1126/science.1257360).
# The other results are listed elsewhere or left out.
# B1: PhoQ; a variant is named by its letters at X, in order, P23837 (parent)
# chain: MKKLLRLFFPLSLRVRFLLATAAVVLVLSLAYGMVALIGYSVSFDKTTFRLLRGESNLFYTLAKWENNKLHVELPENIDKQSPTMTLIYDENGQLLWAQRDVPWLMKMIQPDWLKSNGFHEIEADVNDTSLLLSGDHSIQQQLQEVREDDDDAEMTHSVAVNVYPATSRMPKLTIVVVDTIPVELKSSYMVWSWFIYVLSANLLLVIPLLWVAAWWSLRPIEALAKEVRELEEHNRELLNPATTRELTSLVRNLNRLLKSERERYDKYRTTLTDLTHSLKTPLXXLQXXLRSLRSEKMSVSDAEPVMLEQISRISQQIGYYLHRASMRGGTLLSRELHPVAPLLDNLTSALNKVYQRKGVNISLDISPEISFVGEQNDFVEVMGNVLDNACKYCLEFVEISARQTDEHLYIVVEDDGPGIPLSKREVIFDRGQRVDTLRPGQGVGLAVAREITEQYEGKIVAGESMLGGARMEVIFGRQHSAPKDE
# Variants of: B1
# Assay: enrichment ratio after two sorts for PhoP signalling (ratio (wild type AVST 3.29)); higher = more functional
# Details: with PhoP (E. coli)
row,Variant,enrichment ratio
1,PKMR,≤ 0.25
2,FMCY,≤ 0.25
3,EMTG,≤ 0.25
4,IRKH,≤ 0.25
5,TAGR,≤ 0.25
6,LFWM,≤ 0.25
7,KFCM,≤ 0.25
8,SVNN,≤ 0.25
9,RDEG,≤ 0.25
10,EDKF,≤ 0.25
11,VWFN,≤ 0.25
12,FCLS,3.55
13,WKFG,≤ 0.25
14,FDIK,≤ 0.25
15,YQFR,≤ 0.25
16,QFIH,≤ 0.25
17,EPTP,≤ 0.25
18,MDCS,≤ 0.25
19,IMPD,≤ 0.25
20,ACSS,10.5
21,DVCC,≤ 0.25
22,FTYF,≤ 0.25
23,DPIR,≤ 0.25
24,YQDY,≤ 0.25

row,Variant,enrichment ratio
1,GQID,≤ 0.25
2,QVNI,≤ 0.25
3,MFMN,≤ 0.25
4,LCHT,≤ 0.25
5,ATAP,≤ 0.25
6,PEIC,≤ 0.25
7,HHGA,≤ 0.25
8,LWPM,≤ 0.25
9,ITFN,≤ 0.25
10,VDMG,≤ 0.25
11,ISPL,≤ 0.25
12,HCRV,≤ 0.25
13,VAIP,≤ 0.25
14,FNGQ,≤ 0.25
15,DDAC,≤ 0.25
16,VPYC,≤ 0.25
17,RNIC,≤ 0.25
18,AKDK,≤ 0.25
19,WKIW,≤ 0.25
20,GEGL,≤ 0.25
21,TRTI,8.37
22,ELWM,≤ 0.25
23,EQLV,≤ 0.25
24,LLLA,≤ 0.25

row,Variant,enrichment ratio
1,VAKH,≤ 0.25
2,CPPF,≤ 0.25
3,VQER,≤ 0.25
4,QTAL,5.88
5,MAQM,≤ 0.25
6,DAPD,≤ 0.25
7,LHEV,≤ 0.25
8,YGFI,≤ 0.25
9,LYDV,≤ 0.25
10,IDTE,3.21
11,VKIV,≤ 0.25
12,RNVD,≤ 0.25
13,EFPR,≤ 0.25
14,MTMW,≤ 0.25
15,SMDH,≤ 0.25
16,ETQP,≤ 0.25
17,MAWT,≤ 0.25
18,WGMQ,≤ 0.25
19,IKFM,≤ 0.25
20,PAYM,≤ 0.25
21,FPYG,≤ 0.25
22,GLEW,≤ 0.25
23,PCPT,≤ 0.25
24,APMV,≤ 0.25

row,Variant,enrichment ratio
1,QKHS,≤ 0.25
2,DEEL,≤ 0.25
3,YEFC,≤ 0.25
4,RWCV,≤ 0.25
5,WHVG,≤ 0.25
6,DRTP,≤ 0.25
7,QFNF,≤ 0.25
8,QHCQ,≤ 0.25
9,HLWI,≤ 0.25
10,EKNF,≤ 0.25
11,AEPT,≤ 0.25
12,NIVA,≤ 0.25
13,FYAT,≤ 0.25
14,YKMI,≤ 0.25
15,RGGP,≤ 0.25
16,WQCG,≤ 0.25
17,GTKT,≤ 0.25
18,NNRQ,≤ 0.25
19,GTVP,≤ 0.25
20,YGIT,≤ 0.25
21,QQFW,≤ 0.25
22,AHVY,1.23
23,PDNN,≤ 0.25
24,PSTR,≤ 0.25

row,Variant,enrichment ratio
1,ILWR,≤ 0.25
2,SKLD,1.26
3,PRTN,≤ 0.25
4,NWMV,≤ 0.25
5,TSDW,≤ 0.25
6,HWCS,≤ 0.25
7,ENRL,≤ 0.25
8,YWTF,≤ 0.25
9,EKSE,≤ 0.25
10,REHI,≤ 0.25
11,MDCL,≤ 0.25
12,HFPN,≤ 0.25
13,VAFY,0.291
14,PFHG,≤ 0.25
15,MGSY,≤ 0.25
16,ICYD,≤ 0.25
17,PTMP,≤ 0.25
18,MCGQ,7.36
19,MLMP,≤ 0.25
20,KIGE,≤ 0.25
21,FMGL,≤ 0.25
22,GKNN,≤ 0.25
23,LAMI,5.23
24,MSRW,≤ 0.25

row,Variant,enrichment ratio
1,FKYM,≤ 0.25
2,VGFG,≤ 0.25
3,QTHF,3.14
4,SLNT,≤ 0.25
5,NVML,≤ 0.25
6,FQTN,≤ 0.25
7,PNYY,≤ 0.25
8,QNYF,≤ 0.25
9,SMRL,≤ 0.25
10,RKQM,≤ 0.25
11,WNRS,≤ 0.25
12,KHRV,≤ 0.25
13,KDWT,≤ 0.25
14,NIWA,≤ 0.25
15,VTCA,≤ 0.25
16,APGN,≤ 0.25
17,HMWP,≤ 0.25
18,TGHQ,≤ 0.25
19,GFFK,≤ 0.25
20,EYSH,≤ 0.25
21,DWFV,≤ 0.25
22,IVDT,≤ 0.25
23,VIYE,≤ 0.25
24,VDPP,≤ 0.25

row,Variant,enrichment ratio
1,PTRQ,≤ 0.25
2,IEYP,≤ 0.25
3,QTMW,≤ 0.25
4,TQEA,≤ 0.25
5,FVFK,≤ 0.25
6,KCAC,≤ 0.25
7,GATA,≤ 0.25
8,MAGM,≤ 0.25
9,FYYP,≤ 0.25
10,QGWM,9.7
11,ANQI,≤ 0.25
12,LWFY,≤ 0.25
13,TRLT,5.42
14,KPGF,≤ 0.25
15,SRWI,≤ 0.25
16,SDMC,8.47
17,EHTR,≤ 0.25
18,YWKC,≤ 0.25
19,PYQT,≤ 0.25
20,NKCE,≤ 0.25
21,TLDR,≤ 0.25
22,VTTL,3.31
23,MIPE,≤ 0.25
24,DKQC,≤ 0.25

row,Variant,enrichment ratio
1,KFEN,≤ 0.25
2,RFMY,≤ 0.25
3,QRNA,≤ 0.25
4,AYMR,≤ 0.25
5,QMWE,≤ 0.25
6,MYNY,≤ 0.25
7,GQSV,1.06
8,QCPN,≤ 0.25
9,NNPM,≤ 0.25
10,MMYI,≤ 0.25
11,PFTG,≤ 0.25
12,TKQY,6.56
13,VWSV,≤ 0.25
14,FHDM,≤ 0.25
15,IEPL,≤ 0.25
16,SSRG,≤ 0.25
17,PGTM,1.66
18,WNYI,0.483
19,EGSW,≤ 0.25
20,DSQM,≤ 0.25
21,YMFY,≤ 0.25
22,RNFR,≤ 0.25
23,YPKI,≤ 0.25
24,KMGM,≤ 0.25

row,Variant,enrichment ratio
1,RKMR,≤ 0.25
2,DNLP,≤ 0.25
3,ISGN,1.89
4,SDCN,4.78
5,DPDP,≤ 0.25
6,LSKN,≤ 0.25
7,LYHS,≤ 0.25
8,LNIC,≤ 0.25
9,MDFS,≤ 0.25
10,ITAH,≤ 0.25
11,RNVI,≤ 0.25
12,NSRI,≤ 0.25
13,DGRT,≤ 0.25
14,KKCN,≤ 0.25
15,ADQS,≤ 0.25
16,SYNK,≤ 0.25
17,VSRC,≤ 0.25
18,PTRT,≤ 0.25
19,FMCA,≤ 0.25
20,EKFH,≤ 0.25
21,NDSA,≤ 0.25
22,TVWF,≤ 0.25
23,NHQE,≤ 0.25
24,NHYA,≤ 0.25

row,Variant,enrichment ratio
1,LDCA,≤ 0.25
2,KQYN,≤ 0.25
3,HMEP,≤ 0.25
4,FYVL,≤ 0.25
5,NHAT,≤ 0.25
6,EEFN,≤ 0.25
7,RWWH,≤ 0.25
8,TLYY,≤ 0.25
9,STAW,13.1
10,IINS,≤ 0.25
11,MMRN,≤ 0.25
12,GGHM,≤ 0.25
13,EDQT,≤ 0.25
14,GAIF,≤ 0.25
15,NDSN,≤ 0.25
16,FRNC,≤ 0.25
17,FYHC,≤ 0.25
18,LFRC,≤ 0.25
19,RFEN,≤ 0.25
20,HFLL,≤ 0.25
21,PDWN,≤ 0.25
22,MPIY,≤ 0.25
23,MKVQ,≤ 0.25
24,YMWA,≤ 0.25

row,Variant,enrichment ratio
1,FNTA,≤ 0.25
2,LWSI,≤ 0.25
3,QSWI,21.7
4,IFEQ,≤ 0.25
5,LITT,≤ 0.25
6,EETC,≤ 0.25
7,PPQK,≤ 0.25
8,GCDL,≤ 0.25
9,AYRR,≤ 0.25
10,AYSE,0.38
11,QRAW,≤ 0.25
12,VHMT,≤ 0.25
13,MGGW,≤ 0.25
14,FLPN,≤ 0.25
15,LNPH,≤ 0.25
16,YHCA,≤ 0.25
17,MDYQ,≤ 0.25
18,PNDD,≤ 0.25
19,RWPY,≤ 0.25
20,LDGA,≤ 0.25
21,IIYF,≤ 0.25
22,EAMM,≤ 0.25
23,SHGN,≤ 0.25
24,LMPA,≤ 0.25

row,Variant,enrichment ratio
1,TLRP,≤ 0.25
2,FELG,5.22
3,AGFA,≤ 0.25
4,TCND,20.6
5,MRDV,≤ 0.25
6,RHGR,≤ 0.25
7,TFRL,≤ 0.25
8,PWCQ,≤ 0.25
9,YMCF,≤ 0.25
10,SGGC,10.9
11,FPKS,≤ 0.25
12,EEFY,≤ 0.25
13,FVYQ,≤ 0.25
14,QNDP,≤ 0.25
15,DKSC,≤ 0.25
16,DPAL,≤ 0.25
17,NPHG,≤ 0.25
18,WKGY,≤ 0.25
19,QNNA,≤ 0.25
20,WCAR,≤ 0.25
21,DYIL,≤ 0.25
22,GLLC,≤ 0.25
23,AFTL,1.06
24,QFSV,≤ 0.25

row,Variant,enrichment ratio
1,GDHR,≤ 0.25
2,IQPK,≤ 0.25
3,FAEW,≤ 0.25
4,DAKK,≤ 0.25
5,MYDF,≤ 0.25
6,TMES,≤ 0.25
7,WYGW,≤ 0.25
8,YMGV,≤ 0.25
9,IFQM,≤ 0.25
10,NWIM,≤ 0.25
11,TEMK,32.5
12,QPSS,≤ 0.25
13,QYCR,≤ 0.25
14,IHCE,≤ 0.25
15,PDDC,≤ 0.25
16,QIME,≤ 0.25
17,VYWW,≤ 0.25
18,PVWS,≤ 0.25
